From patent publication US4866091A, “Alkanesulfonanilide derivatives, processes for preparation thereof and pharmaceutical composition comprising the same” (Fujisawa Pharmaceutical Co., Ltd., priority 1986, dated 1989)

Test system: adjuvant arthritis in rats
Format: in vivo, female Sprague-Dawley rats
Conditions: Rattus norvegicus, po, 552 h, orally once a day for 23 days, read-out: Inhibition of Secondary Lesion (uninjected paw; %); for inhibition in vivo at 3.2 mg/kg: dose level 3.2 mg/kg; for inhibition in vivo at 1 mg/kg: dose level 1.0 mg/kg; for inhibition in vivo at 10 mg/kg: dose level 10.0 mg/kg

Row | SMILES | inhibition in vivo at 3.2 mg/kg | inhibition in vivo at 10 mg/kg | also measured
1 | CON=C(C)c1ccc(NS(C)(=O)=O)c(Oc2ccc(F)cc2F)c1 [Example 16, 2'-(2,4-difluorophenoxy)-4'-[1-(methoxyimino)ethyl]methanesulfonanilide] | 62.5% | – | –
2 | Cc1cc(NS(C)(=O)=O)c(Oc2ccc(F)cc2F)cc1C#N [Example 20, 4'-Cyano-2'-(2,4-difluorophenoxy)-5'-methylmethanesulfonanilide] | – | – | inhibition in vivo at 1 mg/kg: 49.3%
3 | CC(=O)c1ccc(NS(C)(=O)=O)c(Oc2ccc(F)cc2Cl)c1 [Example 25, 4'-Acetyl-2'-(2-chloro-4-fluorophenoxy)methanesulfonanilide] | – | 81.6% | –
4 | CC(O)c1ccc(NS(C)(=O)=O)c(Oc2ccc(F)cc2F)c1 (stereo not shown) [Example 32, 2'-(2,4-difluorophenoxy)-4'-(1-hydroxyethyl)methanesulfonanilide] | – | 63.4% | –
5 | CC(=O)c1ccc(NS(C)(=O)=O)c(Oc2ccc(F)cc2F)c1 [Example 1, 4'-acetyl-2'-(2,4-difluorophenoxy)methanesulfonanilide] | – | – | inhibition in vivo at 1 mg/kg: 50%
6 | CS(=O)(=O)Nc1ccc(C#N)cc1Oc1ccc(F)cc1F [Example 3, 4'-Cyano-2'-(2,4-difluorophenoxy)methanesulfonanilide] | 66% | – | –
7 | CC(=NNC(N)=O)c1ccc(NS(C)(=O)=O)c(Oc2ccc(F)cc2F)c1 [Example 40, 3'-(2,4-difluorophenoxy)-4'-methanesulfonamidoacetophenone semicarbazone] | – | 70.4% | –
8 | CC(C)Cc1ccc(C(C)C(=O)O)cc1 (stereo not shown) [Ibuprofen, reference compound] | – | 24.7% | inhibition in vivo at 100 mg/kg (dose level 100.0 mg/kg): 79.4%
9 | CC(=O)c1ccc(NS(C)(=O)=O)c(Oc2ccc(Cl)cc2Cl)c1 [Example 14, 4'-Acetyl-2'-(2,4-dichlorophenoxy)methanesulfonanilide] | 59.4% | – | –
